# Assay results from the supplement of paper PMC8728848.
# The list shows a part of the results.
# Assays:
# Test in all cases: glycan array binding signal (z-score within array); higher = stronger binding
# Details in all cases: glycan notation: IUPAC condensed, linker removed
# Neu5Ac(a2-8)Neu5Ac = target: Neu5Ac(a2-8)Neu5Ac
# Summary of the method: (§1)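 The binding signal is a Z-score computed within each array and averaged over linkers. Arrays of the same protein sequence at different concentrations or buffers were also averaged together. Data originate from 3228 arrays in the Consortium for Functional Glycomics database, kept only where the protein sequence was available.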
# [1] = target: Neu5Ac(a2-8)Neu5Ac(a2-3)Gal(b1-3)GalNAc(b1-4)[Neu5Ac(a2-3)]Gal(b1-4)Glc
# Summary of the method: as §1
# [2] = target: Neu5Ac(a2-8)Neu5Ac(a2-3)Gal(b1-3)GalNAc(b1-4)[Neu5Ac(a2-8)Neu5Ac(a2-3)]Gal(b1-4)Glc
# Summary of the method: as §1
# [3] = target: Neu5Ac(a2-8)Neu5Ac(a2-3)Gal(b1-4)Glc
# Summary of the method: as §1
# [4] = target: Neu5Ac(a2-8)Neu5Ac(a2-3)Gal(b1-4)GlcNAc
# Summary of the method: as §1
# [5] = target: Neu5Ac(a2-8)Neu5Ac(a2-3)[Gal(b1-3)GalNAc(b1-4)]Gal(b1-4)Glc
# Summary of the method: as §1
# [6] = target: Neu5Ac(a2-8)Neu5Ac(a2-3)[GalNAc(b1-4)]Gal(b1-4)Glc
# Summary of the method: as §1
# [7] = target: Neu5Ac(a2-8)Neu5Ac(a2-8)Neu5Ac
# Summary of the method: as §1
# [8] = target: Neu5Ac(a2-8)Neu5Ac(a2-8)Neu5Ac(a2-3)Gal(b1-4)Glc
# Summary of the method: as §1
# [9] = target: Neu5Ac(a2-8)Neu5Ac(a2-8)Neu5Ac(a2-3)[Gal(b1-3)GalNAc(b1-4)]Gal(b1-4)Glc
# Summary of the method: as §1
# [10] = target: Neu5Ac(a2-8)Neu5Ac(a2-8)Neu5Ac(a2-3)[GalNAc(b1-4)]Gal(b1-4)Glc
# Summary of the method: as §1
# [11] = target: Neu5Ac(a2-8)Neu5Ac(a2-8)Neu5Ac(a2-8)Neu5Ac(a2-3)[GalNAc(b1-4)]Gal(b1-4)Glc
# Summary of the method: as §1
# [12] = target: Neu5Ac(a2-8)Neu5Gc(a2-3)Gal(b1-4)GlcNAc
# Summary of the method: as §1
# [13] = target: Neu5Ac(b2-6)Gal(b1-4)GlcNAc
# Summary of the method: as §1
# Neu5Ac(b2-6)GalNAc = target: Neu5Ac(b2-6)GalNAc
# Summary of the method: as §1
# [14] = target: Neu5Ac9Ac(a2-3)Gal(b1-3)GlcNAc
# Summary of the method: as §1
# [15] = target: Neu5Ac9Ac(a2-3)Gal(b1-4)GlcNAc
# Summary of the method: as §1
# [16] = target: Neu5Ac9Ac(a2-6)Gal(b1-4)GlcNAc
# Summary of the method: as §1
# [17] = target: Neu5Gc(a2-3)Gal(b1-3)GlcNAc
# Summary of the method: as §1
# [18] = target: Neu5Gc(a2-3)Gal(b1-3)[Fuc(a1-4)]GlcNAc
# Summary of the method: as §1
# Neu5Gc(a2-3)Gal(b1-4)Glc = target: Neu5Gc(a2-3)Gal(b1-4)Glc
# Summary of the method: as §1
# [19] = target: Neu5Gc(a2-3)Gal(b1-4)GlcNAc
# Summary of the method: as §1
# [20] = target: Neu5Gc(a2-3)Gal(b1-4)GlcNAc(b1-3)Gal(b1-4)GlcNAc(b1-2)Man(a1-3)[Neu5Gc(a2-3)Gal(b1-4)GlcNAc(b1-3)Gal(b1-4)GlcNAc(b1-2)Man(a1-6)]Man(b1-4)GlcNAc(b1-4)GlcNAc
# Summary of the method: as §1
# [21] = target: Neu5Gc(a2-3)Gal(b1-4)[Fuc(a1-3)]GlcNAc
# Summary of the method: as §1
# [22] = target: Neu5Gc(a2-6)Gal(b1-4)GlcNAc
# Summary of the method: as §1
# Neu5Gc(a2-6)GalNAc = target: Neu5Gc(a2-6)GalNAc
# Summary of the method: as §1
# [23] = target: Neu5Gc(a2-8)Neu5Ac(a2-3)Gal(b1-4)GlcNAc
# Summary of the method: as §1
# [24] = target: Neu5Gc(a2-8)Neu5Gc(a2-3)Gal(b1-4)GlcNAc
# Summary of the method: as §1
# [25] = target: Neu5Gc(a2-8)Neu5Gc(a2-3)Gal(b1-4)GlcNAc(b1-3)Gal(b1-4)GlcNAc
# Summary of the method: as §1
# [26] = target: Neu5Gc(a2-8)Neu5Gc(a2-6)Gal(b1-4)GlcNAc
# Summary of the method: as §1
# [27] = target: Neu5Gc(b2-6)Gal(b1-4)GlcNAc
# Summary of the method: as §1
binder,measurement,setting,value
SialidaseA (Arthrobacter ureafaciens) (protein) MRSNSTSAPSLVRRAATGVLTCAVSIGLLAGLGLPAQAAPTPPNSPTLPPGSFSETNLAADRTAANFFYRIPALTYLGNDVVLAAWDGRPGSAADAPNPNSIVQRRSTDGGKTWGPVQVIAAGHVADASGPRYGYSDPSYIYDAEANKVFAFFVYSKDQGFGGSQFGNDDADRNVISSAVIESSDAGVTWSQPRLITSVTKPGTSKTNPAAGDVRSNFASSGEGIQLKYGPHKGRLIQQYAGDVRQADGSNKIQAYSVYSDDHGVTWHKGANVGDRMDENKTVELSDGRVLLNSRDNANRGYRKVAVSTDGGATYGPVSQDTELPDPANNGAIARMFPNAAQGSADAKKLIFTNANSKTGRENVSARVSCDDGETWPGVRTIRSGFSAYSTVTRLADGKFGVLYEGNYTDNMPFATFDDAWLNYVCAPLAVPAVNIAPSATQEVPVTVTNQEATTLSGATATVYTPSGWSATTVPVPDVAPGASVTVTVALTAPADASGPRSLNAAFTTADGRVSQFTFTATTPVAPQVGLTITGSAPARDVAANPYQAGDVLGYTLNVKSTANVAANSVPLTGTFDSGFLPPAAPNCRYNNLAAGASYNCTTAKHTITAADMERGYFVPEATFSITSTTTPSLTKTVQFTGAAVALRDGLISADISGARTDVGRDLATRPYAAGELVPYAFTVKNTSPFVEQVVPTAGNFSPFLPAGAGNCRYLSLPAGQSYECATPRHAVTAEEVEQGFFVPDTTWEVSAAGQSTRTYRINGGEVDLLVRDAALSATVVAEWKDADGDRFASAGDPVTFTYTVGNAGNVALTGLEAPDAGISLPFLAPGDTATATREHVLTAADVAGGSLAASAFEATARNGSKEVTATAEGQPLELKVQPAQPSKEPELTVQDLEDQTPPFDLGTAFKYRTGQKVSLAGLEYGQWYYVYLNKTGYRLGWMFPTTGDTVEFILPPEVRNGRDDVVVLDKDGRRVSFDRLQVTPKGEKI,glycan array binding signal (z-score),Neu5Ac(a2-8)Neu5Ac,0.915
same,glycan array binding signal (z-score),[1],-0.165
same,glycan array binding signal (z-score),[2],-0.496
same,glycan array binding signal (z-score),[3],0.214
same,glycan array binding signal (z-score),[4],0.72
same,glycan array binding signal (z-score),[5],-0.131
same,glycan array binding signal (z-score),[6],0.978
same,glycan array binding signal (z-score),[7],1.11
same,glycan array binding signal (z-score),[8],0.864
same,glycan array binding signal (z-score),[9],-0.754
same,glycan array binding signal (z-score),[10],0.901
same,glycan array binding signal (z-score),[11],0.607
same,glycan array binding signal (z-score),[12],-0.289
same,glycan array binding signal (z-score),[13],1.97
same,glycan array binding signal (z-score),Neu5Ac(b2-6)GalNAc,1.22
same,glycan array binding signal (z-score),[14],0.113
same,glycan array binding signal (z-score),[15],0.621
same,glycan array binding signal (z-score),[16],-0.523
same,glycan array binding signal (z-score),[17],0.271
same,glycan array binding signal (z-score),[18],1.83
same,glycan array binding signal (z-score),Neu5Gc(a2-3)Gal(b1-4)Glc,0.765
same,glycan array binding signal (z-score),[19],0.363
same,glycan array binding signal (z-score),[20],1.3
same,glycan array binding signal (z-score),[21],2.07
same,glycan array binding signal (z-score),[22],1.5
same,glycan array binding signal (z-score),Neu5Gc(a2-6)GalNAc,1.5
same,glycan array binding signal (z-score),[23],0.631
same,glycan array binding signal (z-score),[24],0.678
same,glycan array binding signal (z-score),[25],-0.017
same,glycan array binding signal (z-score),[26],1.47
same,glycan array binding signal (z-score),[27],2.17
